# Among all 2,100 compounds or so, about 1,100 (52%) were called active. The set was probably picked from earlier hits. The inconclusive results got no clear call from the source; some entries with a clear call stand among them for comparison. Calls come from the whole dose curve; as a rule, active = well fitted inhibition curve with a large enough effect; inconclusive = small, poorly fitted or top-dose-only effect; inactive = no such curve, though single readings can be large or run the other way. No potency is given beside an inconclusive call; the fits are too rough.
# Biological target: DNA dC->dU-editing enzyme APOBEC-3G (Homo sapiens) (UniProt Q9HC16)
# UniProt Q9HC16, sequence (Q9HC16 whole entry, looked up): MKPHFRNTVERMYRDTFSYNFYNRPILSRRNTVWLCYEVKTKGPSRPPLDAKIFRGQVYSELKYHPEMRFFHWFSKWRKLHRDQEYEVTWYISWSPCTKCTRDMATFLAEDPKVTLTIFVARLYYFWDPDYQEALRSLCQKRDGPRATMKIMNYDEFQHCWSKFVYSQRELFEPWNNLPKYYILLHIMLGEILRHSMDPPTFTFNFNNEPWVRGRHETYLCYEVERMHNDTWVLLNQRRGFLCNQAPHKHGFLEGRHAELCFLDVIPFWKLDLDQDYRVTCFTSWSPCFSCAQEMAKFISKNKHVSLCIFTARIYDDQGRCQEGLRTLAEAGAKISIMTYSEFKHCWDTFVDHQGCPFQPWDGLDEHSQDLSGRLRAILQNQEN
# Experiment: qHTS for inhibitors of Vif-A3G interactions: Cherry picks counterscreen;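 note: hits raise yellow fluorescence by blocking Vif-driven A3G-eYFP degradation; nearly all actives have a fitted effect of over 70% in size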;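 for max response: max response given as percent of control signal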
# Conditions: HeLa A3G-eYFP + Vif (tagged APOBEC3G with the HIV-1 protein that degrades it), eYFP fluorescence, 24 h
# Procedure, shortened: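 HeLa cells stably expressing A3G-eYFP and Vif were treated for 24 h at 37 deg C with compounds at several concentrations; yellow fluorescence (Ex 488 nm, Em 500-530 nm) read by Acumen Explorer, MG132 as positive control.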
# Potency is the fitted concentration of half-maximal effect; tags give direction and shape of the fitted curve.
Compound,max response,Potency
C=CCOC(=O)C1=C(C)NC(C)=C(C(=O)OCC=C)C1c1cn(-c2ccccc2)nc1-c1ccco1,inactive: -22.7%,–
Cc1[nH]c2ccccc2c1/C=C/c1ccnc2ccccc12,–,"inconclusive [inhibitor, partial curve, poor fit]"
CCN(c1ccc(NC(=O)CCc2nc3sc4c(c3c(=O)[nH]2)CCCC4)cc1)C(C)C,–,"inconclusive [inhibitor, partial curve]"
COc1ccc2c(C)cc(SCC(=O)N(C)C3CCS(=O)(=O)C3)nc2c1 (centres undefined),–,active: 20.6 µM
CCC(=C/c1sc2ccc3ccccc3c2[n+]1C)/C=C1\Sc2ccc3ccccc3c2N1C,inactive: -21.8%,–
COc1cc(-c2cc(NC=O)c3ncc(-c4ccc(C(C)=O)cc4)n3c2)cc(OC)c1OC,–,"inconclusive [inhibitor, single point]"
Cc1nnc(SCC(=O)NCc2ccccc2F)c2nn(-c3ccc(Cl)cc3)c(C)c12,–,"inconclusive [inhibitor, single point]"
Fc1ccc(CNc2nc3ccc(Cl)cc3n3nnnc23)cc1,–,"inconclusive [inhibitor, single point]"
Cc1ccc(NC(=O)c2ccc([N+](=O)[O-])s2)cc1S(=O)(=O)N1CCOCC1,inactive: -5.77%,–
CCCN1C(=O)/C(=C/C=C2\N(CC)c3ccccc3C2(C)C)SC1=S,–,active: 1.58 µM
COc1ccc(N2C(=O)NC3CC2(C)Oc2ccccc23)cc1OC (centres undefined),–,"inconclusive [inhibitor, single point]"
CCOC(=O)N1CCC(Nc2nc3ccccc3nc2NS(=O)(=O)c2ccc(Cl)cc2)CC1,–,"inconclusive [inhibitor, full curve, poor fit]"
CCOc1ccc(C(=O)C(CCC(CN(C)C)C(=O)c2ccc(OCC)cc2)CN(C)C)cc1 (centres undefined),inactive: -24.5%,–
CN1CCc2c(sc3c2C(=O)NC(c2ccc(-c4ccc(Cl)cc4)o2)N3)C1 (centres undefined),–,"inconclusive [inhibitor, partial curve]"
Cc1c(N/N=C(\C#N)C(=O)c2ccc(Cl)cc2)c(=O)n(-c2ccccc2)n1C,–,"inconclusive [inhibitor, single point]"
COCCNC(=S)N/N=C/c1ccc(-c2ccc([N+](=O)[O-])cc2)o1,–,"inconclusive [inhibitor, single point]"
COc1ccccc1C1c2ccc3ccccc3c2Oc2ncn(CCN(C)C)c(=N)c21 (centres undefined),–,"inconclusive [inhibitor, single point]"
O=C(/C=C/c1cccs1)NCc1ccc2c(c1)OCO2,inactive: -24.4%,–
COc1ccccc1NC(=O)C1=C(C)Nc2nc3ccccc3n2C1c1cccs1 (centres undefined),–,"inconclusive [inhibitor, full curve]"
Cc1ccc(N=C2NC(=O)/C(=C/c3cn(C)c4ccccc34)S2)cc1C,–,active: 17.7 µM
Cc1c(N=N/C(C(=O)Nc2ccccc2)=C(/O)c2ccccc2)c(=O)n(-c2ccccc2)n1C,–,"inconclusive [inhibitor, single point]"
COc1cccc(Sc2ccccc2/C=N/NC(N)=O)c1,–,"inconclusive [inhibitor, full curve]"
COC(=O)c1c(-c2cccnc2)csc1NC(=O)c1ccc2c(c1)OCO2,–,"inconclusive [inhibitor, partial curve]"

Compound,max response,Potency
COc1cc(/C=C(\C#N)c2nc3ccccc3[nH]2)ccc1OCc1ccccc1F,–,"inconclusive [inhibitor, single point]"
C=C(C(=O)c1ccccc1)C(C)C(=C)C(=O)c1ccccc1,–,active: 8.86 µM
CCOc1c(Cl)cc(/C=N/NC(N)=S)cc1OC,–,"inconclusive [inhibitor, single point]"
COc1cc(/C=N\Nc2ccc([N+](=O)[O-])cc2)ccc1OCC(=O)Nc1ccc(C)c(C)c1,–,"inconclusive [inhibitor, full curve]"
COc1cc(Nc2nc3ccccc3n3nnnc23)cc(OC)c1OC,–,"inconclusive [inhibitor, single point]"
COc1ccc(-c2cc(NC=O)c3ncc(-c4ccc(C(C)=O)cc4)n3c2)cc1OC,–,"inconclusive [inhibitor, single point]"
O=C1C(=Cc2cccn2-c2ccccc2)C(=O)c2ccccc21,–,"inconclusive [inhibitor, single point]"
COc1ccc2nc(SCC(=O)Nc3ccc4sc(C)nc4c3)c(C#N)cc2c1,–,"inconclusive [inhibitor, partial curve]"
CCC(=O)Nc1nc2ccc(NC(=O)c3cc(OC)c(OC)c(OC)c3)cc2s1,inactive: -0.685%,–
CCOc1ccc(Br)cc1/C(C)=N\NC1=NCCN1,–,"inconclusive [inhibitor, single point]"
CCc1ccc(CNC(=O)Cc2ccc(NC(=O)C3=C(C)OCCS3)cc2)cc1,–,active: 0.886 µM
COc1ccc2nc(Nc3nc(CSc4ccc(C)cc4)cc(=O)[nH]3)nc(C)c2c1,inactive: -26.4%,–
COc1ccc(NCc2cc3cc4c(cc3n(CC(=O)Nc3cc(C)ccc3C)c2=O)OCCO4)cc1,–,"inconclusive [inhibitor, single point]"
CS(=O)(=O)Nc1ccc(C2=NN(S(C)(=O)=O)C(c3ccc4nccnc4c3)C2)cc1 (centres undefined),–,"inconclusive [inhibitor, single point]"
CSc1nc(Sc2ccccc2Cl)c2ccccc2n1,inactive: -6.36%,–
Cc1ccc(/C=N/NC(=O)c2nc3nc(C)cc(C)n3n2)cc1,inactive: -10.8%,–
COc1ccc(-n2c(C)cc(/C=C3\SC(=S)NC3=O)c2C)cc1,–,"inconclusive [inhibitor, single point]"
CCCOC(=O)/C(=C\c1ccc([N+](=O)[O-])o1)NC(=O)c1ccccc1,–,"inconclusive [inhibitor, single point]"
Cc1ccc(-n2nc3c(SCCN4CCOCC4)nnc(C)c3c2C)cc1,inactive: -27.8%,–
COc1cc(/C=C/C(=O)c2ccc([N+](=O)[O-])o2)ccc1O,–,"inconclusive [inhibitor, single point]"
CN(C)c1ccc(/C=C/c2cc(N(C)C)nc3ccccc23)cc1,–,active: 6.51 µM
Cc1ccccc1-n1c(/C=C/c2c(C)n(C)c3ccccc23)nc2ccccc2c1=O,–,"inconclusive [inhibitor, partial curve]"
COc1cc(C2Sc3ccccc3NC3=C2C(=O)OC3)cc(OC)c1OC (centres undefined),–,"inconclusive [inhibitor, single point]"

Compound,max response,Potency
CCOC(=O)c1c(NC(=O)c2ccc(S(=O)(=O)N3CCC(C)CC3)cc2)sc2c1CCN(C)C2,–,"inconclusive [inhibitor, single point]"
COC(=O)c1[nH]c2c(c1C(=O)OC)CCc1ccccc1-2,–,"inconclusive [inhibitor, single point]"
CCCn1nnc(NC(=S)NC(=O)c2ccccc2OC)n1,inactive: 9.21%,–
Cc1ccc([N+](=O)[O-])cc1-c1ccc(/C=C(\C#N)c2[nH]nc(N)c2C#N)o1,–,"inconclusive [inhibitor, single point]"
Cc1c(CCCl)c(Cl)n2c(nc3ccccc32)c1C#N,–,active: 9.94 µM
COc1ccc(/C=C2\Oc3cc(OC(=O)N4CCOCC4)ccc3C2=O)c(OC)c1,inactive: -18.4%,–
N#Cc1ccc(/C=C\c2nccc3c2[nH]c2ccccc23)cc1,–,"inconclusive [inhibitor, single point]"
COc1ccc(OC)c(Nc2nc(-c3ccncc3)nc3ccccc23)c1,–,"inconclusive [inhibitor, single point]"
Cc1ccc(O)c(Nc2c3ccccc3nc3ccccc23)c1,inactive: 10.9%,–
CCS(=O)(=O)C1=NN2C(=N)/C(=C\c3ccc(SCc4ccco4)o3)C(=O)N=C2S1,inactive: 2.81%,–
C=CCc1c(C)nc(-c2ccccc2)nc1Nc1ccccc1O,–,"inconclusive [inhibitor, single point]"
CCCCCCn1c(=O)[nH]c2nc3cc(N)ccc3nc2c1=O,inactive: 36.1%,–
COC(=O)c1sc(-c2cccs2)cc1NC(=O)/C=C/C(=O)O,–,"inconclusive [inhibitor, single point]"
O=C(NC(=S)Nc1ccc(N2CCCCC2)c(Cl)c1)c1ccc2c(c1)OCCO2,–,"inconclusive [inhibitor, partial curve, poor fit]"
CSc1ccccc1NC(=O)COC(=O)/C=C/c1ccco1,inactive: -23.9%,–
COC(=O)c1c(-c2ccccc2Cl)noc1/C=C/N(C)C,inactive: 16.3%,–
COc1cc(CNCCSc2nnnn2C)ccc1OCc1c(F)cccc1Cl,inactive: 28.9%,–
CC(C)NC(=S)N/N=C1\CCCCc2ccccc21,inactive: -0.219%,–
Cc1cc(N2CCCC2)ccc1/C=C1/C(=O)N(C)C(=S)N1C,inactive: 40%,–
Cc1ccc(C(=O)CSC2=C(C#N)C(c3ccco3)C3=C(CCCC3=O)N2)cc1 (centres undefined),–,"inconclusive [inhibitor, partial curve, poor fit]"
CCCCN1C(=O)/C(=C/C=C2/CC(C)(C)CN2C)SC1=S,inactive: 54.7%,–
COc1ccc(-c2n[nH]c(C)c2-c2ccc(OC)c(OC)c2)c(O)c1,–,active: 17.7 µM
CCOC(=O)c1sc2cc([N+](=O)[O-])cc(SCC(C)C)c2c1N,–,active: 2.31 µM

# Source: PubChem BioAssay AID651813 (National Center for Advancing Translational Sciences (NCATS), 2012)
